PubChem BioAssay AID686979 (National Center for Advancing Translational Sciences (NCATS), 2013)
About 50,000 (12%) of roughly 420,000 compounds were called active. Inconclusive results, whose numbers are uncertain, are shown with a selection of clear calls. Calls come from the whole dose curve; as a rule, active = well fitted inhibition curve with a large enough effect; inconclusive = small, poorly fitted or top-dose-only effect; inactive = flat fitted curve, though single readings scatter. Potencies of inconclusive entries are left out as doubtful fits.

Test: qHTS for Inhibitors of human tyrosyl-DNA phosphodiesterase 1 (TDP1): qHTS in cells in presence of CPT; note: nearly all actives have a fitted effect of over 55% in size
Details: chicken DT40 Tdp1-/-;hTDP1 cells + 20 nM CPT, ATP luminescence, 48 h; activity change, negative = growth inhibition: at 46.2 µM (top of the series) unless noted
How it was run: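 Chicken DT40 Tdp1-/- cells complemented with human TDP1, 400 cells/well, exposed to compounds plus 20 nM camptothecin for at least 48 h at 37 C; viability read as ATP content by CellTiter-Glo luminescence.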
% is set by controls: 0 for no effect and ±100 for the full control effect; potency is the fitted concentration of half-maximal effect; tags give direction and shape of the fitted curve.

Row | Structure (SMILES) | Potency | activity change, negative = growth inhibition
1 | COc1cc2c(cc1NC(=O)CSc1ccc(C)cc1)oc1ccccc12 | inconclusive [inhibitor, partial curve] | 
2 | COc1cc2nc(CCc3nc4cc(OC)c(OC)cc4[nH]3)[nH]c2cc1OC | active: 5.62 µM | 
3 | COc1ccc(/C=C(/C(=O)c2cccs2)N2C=CC=CC2=C(C#N)C#N)cc1 | active: 1.16 µM | 
4 | Cc1ccc(-c2noc(-c3ccc(N4CCCCC4)c([N+](=O)[O-])c3)n2)cc1 |  | inconclusive: -31.4% [inhibitor]
5 | COc1ccc(OC)c(S(=O)(=O)Nc2ccc3c(c2)C(=O)OC3)c1 | active: 11.6 µM | 
6 | COc1ccc(C(=O)NC(=S)N(C)C2CCCCC2)cc1 | inconclusive [inhibitor, single point] | 
7 | COC(=O)c1c(NC(=O)CN2C(=O)NC3(CCc4ccccc4C3)C2=O)sc2c1CCCCC2 (stereo not given) | active: 20.6 µM | 
8 | CCn1nnnc1SCC(=O)N1N=C(c2cccs2)CC1c1cccs1 (stereo not given) | inconclusive [inhibitor, single point] | 
9 | COc1ccc(S(=O)(=O)NCc2ccco2)cc1NC(=O)c1ccccc1 | inconclusive [inhibitor, single point] | 
10 | CCc1ccc2nc(N3CCN(C(=O)C(C)(C)C)CC3)sc2c1 | inconclusive [inhibitor, single point] | 
11 | N#C/C(=C/c1ccc(N2CCOCC2)o1)c1nc2ccccc2[nH]1 | inconclusive [inhibitor, single point] | 
12 | O=C(C(=O)N1CCN(c2ccc(F)cc2)CC1)c1cn(CC(=O)N2CCOCC2)c2ccccc12 |  | inactive: -8.45%
13 | Cn1c(CN2CCOCC2)nnc1SCC(=O)Nc1cc(Cl)ccc1Cl |  | inactive: -3.32%
14 | COc1ccc(-c2nc(C#N)c(NCCc3ccccc3)o2)cc1 | active: 14.6 µM | 
15 | C[C@@H]1CN([C@@H](C)CO)C(=O)Cc2cc(NC(=O)Nc3ccc4c(c3)OCO4)ccc2O[C@@H]1CN(C)C(=O)NC1CCCCC1 | inconclusive [inhibitor, single point] | 
16 | O=c1[nH]cnc2c1c(-c1ccccc1)cn2-c1cccc(Cl)c1 | inconclusive [inhibitor, single point] | 
17 | CNC(=O)COc1ccc(NC(=O)c2ccc(-c3nn(C)c(=O)c4ccccc34)cc2)cc1 | inconclusive [inhibitor, single point] | 
18 | CC1(Cc2ccc(C(F)(F)F)o2)C(=O)Nc2cc(-c3ccc(F)cc3F)ccc21 (stereo not given) | inconclusive [inhibitor, single point] | 
19 | O=C1Nc2ccccc2S/C1=C/Nc1cccc(Cl)c1 | inconclusive [inhibitor, single point] | 
20 | COc1ccc(NC(=O)CN2CCC(C(=O)c3ccc(C)cc3)CC2)c(OC)c1 | inconclusive [inhibitor, full curve, poor fit] | 
21 | COc1ccc(C(C(=O)NCc2ccccc2)N(Cc2ccco2)C(=O)c2snc(C(N)=O)c2N)cc1OC (stereo not given) | inconclusive [inhibitor, single point] | 
22 | COc1ccc(SCCN2CC[C@@H](O)CCC2=O)cc1 | inconclusive [inhibitor, partial curve, poor fit] | 
23 | O=C(CN1CCN(Cc2ccccc2)CC1)Nc1cccc(Cl)c1Cl | inconclusive [inhibitor, single point] | 
24 | O=C(CCC(=O)N1CCN(c2ccccc2F)CC1)N1CCN(c2ccc(F)cc2)CC1 | inconclusive [inhibitor, partial curve] | 

Row | Structure (SMILES) | Potency | activity change, negative = growth inhibition
25 | CCn1c(SCc2ccccc2Cl)nc(=O)c2c(C(=O)OC)cc(C3CC3)nc21 | active: 11.6 µM | 
26 | c1ccc2nc(-c3ccc(-n4ccnc4)cc3)ccc2c1 | inconclusive [inhibitor, partial curve, poor fit] | 
27 | CCOc1ccc2c(c1)c1nnc(SCC(=O)NC3CC3)nc1n2C |  | inactive: -20.8%
28 | CCCCCC1CC(CC(=O)Nc2ccc([N+](=O)[O-])cc2)C(=O)O1 (stereo not given) | inconclusive [inhibitor, single point] | 
29 | COc1cc(Cl)ccc1OCc1cc(C(=O)N(C)CCc2cnn(C)c2)no1 | inconclusive [inhibitor, single point] | 
30 | CCc1ccc(N(C(=O)c2ccco2)C(C(=O)NC2CCCC2)c2ccco2)cc1 (stereo not given) | inconclusive [inhibitor, single point] | 
31 | Clc1ncnc2scc(C3COc4ccccc4O3)c12 (stereo not given) | inconclusive [inhibitor, single point] | 
32 | Cc1ccc(CCNc2ncnc(Cl)c2N)cc1 | active: 0.461 µM | 
33 | COc1cc(-c2noc(-c3cc(C(C)C)[nH]n3)n2)cc(OC)c1OC | inconclusive [inhibitor, single point] | 
34 | Cc1ccc(S(=O)(=O)N(CC(=O)NCc2ccco2)Cc2ccccc2F)cc1 |  | inactive: -94.9%
35 | COCCCNC(=O)C1CCC(CNS(=O)(=O)c2ccc(Cl)cc2)CC1 (stereo not given) |  | inactive: -4.53%
36 | Cc1ccc(N(C)S(=O)(=O)c2ccc(-c3cc(C)no3)s2)cc1 | active: 6.51 µM | 
37 | O=C(COc1ccccc1)Nc1c2c(nn1-c1ccccc1)CS(=O)C2 (stereo not given) |  | inactive: -11.4%
38 | CC(C)(C)OC(=O)C[C@H]1C/C=C\C[C@H](CC(=O)N[C@H](CO)Cc2ccccc2)C(=O)N[C@@H](Cc2ccccc2)COC1=O | active: 16.4 µM | 
39 | Cc1cc(C)c2c(-n3cccc3)c(C(=O)NCCCN3CCCCC3C)sc2n1 (stereo not given) | inconclusive [inhibitor, single point] | 
40 | O=C(NCc1cccs1)C1CCCN(S(=O)(=O)c2ccc(Br)s2)C1 (stereo not given) |  | inactive: -10.8%
41 | CC(=O)Nc1nonc1-c1nnc(SCc2ccc(Cl)cc2)n1C | inconclusive [inhibitor, single point] | 
42 | CCOc1ccc(CN(Cc2ccco2)C(c2cccs2)c2nnnn2C(C)(C)C)cc1 (stereo not given) | inconclusive [inhibitor, single point] | 
43 | COCCOC(=O)c1c(C)nc(SCC(=O)Nc2cccc3ccccc23)c(C#N)c1-c1ccco1 | inconclusive [inhibitor, single point] | 
44 | O=C(NCC1COc2ccccc2O1)c1cccc(S(=O)(=O)N2CCCCC2)c1 (stereo not given) | inconclusive [inhibitor, single point] | 
45 | CC(=O)Nc1ccc2nc(NC(=O)c3cccnc3)sc2c1 | inconclusive [inhibitor, single point] | 
46 | Cc1ccc(NC(=O)CN(C)C(=O)COC(=O)C2=COCCO2)cc1 |  | inactive: -3.45%
47 | CCCn1c(=O)c2c(nc3n2CCCN3CCc2ccccc2)n(C)c1=O | inconclusive [inhibitor, single point] | 
48 | COC(=O)c1c(NC(=O)Cc2cccs2)sc(C(=O)NC2CCCCC2)c1C | inconclusive [inhibitor, single point] | 

Row | Structure (SMILES) | Potency | activity change, negative = growth inhibition
49 | CCOc1ccccc1CN1CCN(Cc2nc3ccccc3s2)CC1CCO (stereo not given) | inconclusive [inhibitor, single point] | 
50 | COc1ccc(C(=O)COC(=O)C2CCC(=O)N2)cc1 (stereo not given) |  | inactive: 8.19%
51 | COc1ccc(NC(=O)CSc2nc(C3CC3)nc3ccccc23)cc1 | inconclusive [inhibitor, partial curve] | 
52 | CNC(=S)Nc1cccc(S(=O)(=O)NCc2ccco2)c1 |  | inactive: 7.86%
53 | O=C(/C=C/c1ccco1)NC(=S)Nc1nc(-c2ccc(Cl)cc2)cs1 | active: 5.17 µM | 
54 | Cc1cc(Cl)ccc1C(O)c1ncc(-c2ccccc2Cl)[nH]1 (stereo not given) | active: 20.6 µM | 
55 | COc1cccc(N2C(=O)N(CC(=O)NCc3cccc(OC)c3OC)c3ccccc3S2(=O)=O)c1 |  | inactive: -14.3%
56 | O=C(N/N=C/c1c(F)c(F)c(F)c(F)c1F)c1cc(-c2ccccc2)nc2ccccc12 | inconclusive [inhibitor, partial curve, poor fit] | 
57 | CN(Cc1cnn(C)c1)Cc1nc(C(c2ccccc2)c2ccccc2)no1 | inconclusive [inhibitor, partial curve] | 
58 | CCCCCCN1C=C/C(=C\C=C(C#N)C#N)c2ccccc21 | inconclusive [inhibitor, partial curve, poor fit] | 
59 | Cc1ccc(O)c(-n2nc3ccccc3n2)c1 | inactive | 
60 | Oc1ccccc1C1=Nc2ccccc2N=C(c2ccco2)C1 |  | inconclusive: -31.1% [inhibitor]
61 | O=S(=O)(c1ccc(F)c(F)c1)N1CCN(c2ccccn2)CC1 |  | inactive: -1.88%
62 | COc1c(C)cc(C(=O)C2CCCN(C(=O)CCCn3cncn3)C2)cc1C (stereo not given) |  | inactive: -11.7%
63 | Cc1noc(-c2ccc(Cl)cc2)c1C(=O)O/N=C(\N)c1ccc(C(C)(C)C)cc1 | inconclusive [inhibitor, single point] | 
64 | Cc1ccc2cccc(NC(=O)c3ccc(-c4ccc(Br)cc4)o3)c2n1 |  | inactive: -16.2%
65 | CC(=O)N1CCOc2ccc(S(=O)(=O)NC[C@H]3O[C@@H](n4ccc(=O)[nH]c4=O)[C@H](O)[C@@H]3O)cc21 |  | inactive: 1.76%
66 | Cc1ccc(S(=O)(=O)Nc2cccc(C(=O)NC3CCN(Cc4ccccc4)CC3)c2)cc1F | inconclusive [inhibitor, single point] | 
67 | CCc1ccccc1Nc1ncnc2c1nc1n2CCCC1 |  | inactive: -13.5%
68 | COc1cccc(C2C(C(=O)Nc3ccccc3OC)=C(C)Nc3nc4ccccc4n32)c1 (stereo not given) | inconclusive [inhibitor, single point] | 
69 | Cc1ccc(-c2ccc3nnc(SCC(N)=O)n3n2)cc1 | inconclusive [inhibitor, single point] | 
70 | CC1CCCC(C)N1CCCNC(=O)Cn1cc2c(n1)CCCC2 (stereo not given) |  | inactive: -12.3%
